About 600 (1.2%) of roughly 51,000 compounds were called active. The shares of active, inactive and inconclusive entries below differ from those in the screen. Cut-off read from the data, not from the text of the source: active = potency below about 11 µM; inconclusive = mostly about 12 µM to 25 µM; inactive = weaker than that;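 the screen sought inhibitors and activators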. Potencies of inconclusive entries are left out as doubtful fits.
System: pyruvate kinase (Bacillus stearothermophilus)
Assay: Pyruvate Kinase
Conditions: purified pyruvate kinase, luminescence ATP production; ribose 5-phosphate activator present at AC10
Procedure: Pyruvate kinase (partially purified from Bacillus stearothermophilus) was assayed for its ability to generate ATP from ADP using phosphoenolpyruvate (PEP) as a substrate. ATP generation was detected in a coupled reaction by luciferase-mediated luminescence, an ATP-dependent process. Pyruvate kinase substrates, PEP and ADP, were present in the assay at Km and […]-fold below Km respectively. The enzyme was assayed at an intermediate level of activity to screen for inhibitors and activators. In addition, ribose 5 phosphate, a positive modulator of pyruvate kinase, was included in the assay at AC10 in order to identify possible potentiators.
NCGC Assay Protocol Summary:
Three uL of substrate mix (final concentration, 50 mM imidazole pH 7.2, 50 mM KCl, 7 mM MgCl2, 2 mM PEP, 0.1 mM ADP, 0.7 nM ribose 5 phosphate, 0.01% Tween 20, 0.05% BSA) was dispensed into 1536 well plates. 23 nL of compound were delivered by a pin tool and 1 uL of enzyme mix (final concentration, 10 nM pyruvate kinase, 50 mM imidazole pH 7.2, 0.05% BSA) was added. After centrifugation at 1000 rpm for less than a minute, plates were incubated at room temperature for 2 hours. Three uL of detection and kinase stop mix (PKLight, Cambrex) was added, the plates centrifuged, and luminescence read by a ViewLux (Perkin Elmer) at 5 second exposure/plate. Data were normalized to the controls for AC100 stimulation (5 uM ribose 5 phosphate) and to AC100 inhibition (110 uM luteolin).
Potency is the fitted concentration of half-maximal effect.

| Structure (SMILES) | Potency |
| --- | --- |
| CN(C)S(=O)(=O)c1ccc(C(=O)OCC(=O)NC(=O)NCc2ccccc2)cc1 | inactive: > 57 µM |
| c1ccc(-c2cc3c(nn2)CCc2nonc2-3)cc1 | inactive: > 57 µM |
| CC(=O)c1c(C)nc(-c2ccc(Cl)cc2)nc1N=CN(C)C | inconclusive [decreasing] |
| O=C(Nc1cnn(C23CC4CC(CC(C4)C2)C3)c1)c1cnn2cccnc12 | inconclusive [decreasing] |
| CN1CCc2nc(SCC(=O)Nc3ccc(Cl)cc3)c(C#N)cc2C1 | inactive: > 25.6 µM |
| Cc1ccc2c(c1)N(CC(=O)N1CCN(c3nc4ccccc4s3)CC1)C(=O)C(C)O2 (stereo not drawn) | inactive: > 57 µM |
| Cc1csc(C(C#N)C(=O)c2cc3ccccc3o2)n1 (stereo not drawn) | inconclusive [decreasing] |
| CC(=O)Nc1ccc2oc(-c3ccccc3Br)nc2c1 | inconclusive [decreasing] |
| Cc1c(O)ccc2c3c(c(=O)oc12)CCC(C)C3 (stereo not drawn) | inactive |
| CCC(=O)Nc1ccc(S(=O)(=O)Nc2cccnc2)cc1 | inactive: > 57 µM |
| Cc1nc2oc3c(NCc4ccccn4)ncnc3c2c2c1COC(C)(C)C2 | inactive: > 57 µM |
| O=S(=O)(O)c1nnc2sc3ccccc3n12 | inconclusive [increasing] |
| COc1ccccc1-c1noc(-c2ccccc2)n1 | inconclusive [decreasing] |
| CC(=O)Nc1ccc2nc(-c3ccccn3)[nH]c2c1 | inconclusive [decreasing] |
| CN(CC(=O)NCc1ccc2c(c1)OCO2)S(=O)(=O)c1ccc(Br)s1 | inconclusive [increasing] |
| CCOc1ccc(C2=Nn3cnnc3SC2)cc1 | inconclusive [decreasing] |
| CCn1c(SCC(=O)N2CCCc3ccccc32)nc2ccccc2c1=O | inactive: > 57 µM |
| COc1ccc(OC)c2sc(N3CCN(c4ccccc4)CC3)nc12 | inconclusive [decreasing] |
| O=C(COC(=O)C1CCN(C(=O)c2ccc(Cl)cc2)CC1)c1ccco1 | inconclusive [increasing] |
| CC(C)NC(=O)CCNC(=O)c1ccc(F)cc1 | inactive: > 57 µM |
| CCCn1c(SCC(=O)Nc2nc3c(s2)CCCC3)nc2c1c(=O)n(C)c(=O)n2C | inactive: > 57 µM |
| OC1(c2ccc(F)cc2)CCN(Cc2nnnn2Cc2cccs2)CC1 | inactive: > 57 µM |
| Cc1noc(C)c1COC(=O)c1cc(F)c(F)cc1Cl | inconclusive [increasing] |

Source: PubChem BioAssay AID361 (National Center for Advancing Translational Sciences (NCATS), 2006)
